This is an account of results in a collection of fitness landscapes (doi:10.1038/s41467-024-54723-y).

The full ranking holds about 18,000 sequences; the median of “TetR repression strength (sort-seq, GFP reporter)” is about 0.23, and the highest 2% start at about 0.68. The list shows a part of the results.

This assay deals with TetR (class B, Tn10) (UniProt P04483). In words: TetR repression strength (sort-seq, GFP reporter) (relative to tetO2 = 1); higher = stronger repression. As to conditions: E. coli. A digest of the protocol: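 Repression strength is the top bin index plus one minus the read-weighted mean bin, relative to the unaltered operator's value. A low-copy library in E. coli SIG10-MAX randomized eight operator positions between a constitutive promoter and sfGFP, with TetR expressed constitutively; cells grew 5 h at 37 °C in LB with 50 µg/mL chloramphenicol and 10^6 were FACS-sorted into 13 bins that were each Illumina-sequenced. Three independent transformations were averaged, keeping only members with ≥30 reads in all replicates and CV ≤0.5.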
UniProt P04483, sequence (P04483 whole entry): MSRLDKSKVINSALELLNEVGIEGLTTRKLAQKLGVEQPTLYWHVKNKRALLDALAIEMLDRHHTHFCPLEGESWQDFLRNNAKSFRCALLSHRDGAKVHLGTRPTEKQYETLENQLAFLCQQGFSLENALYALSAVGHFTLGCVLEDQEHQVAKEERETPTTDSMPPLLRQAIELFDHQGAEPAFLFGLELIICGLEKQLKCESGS
Turning to TCCCGATCAGTGACCGAGA, the TetR repression strength came to 0.715.
TCCCAGTGAGTGCTCGAGA displayed a TetR repression strength of 0.0229.
Take TCCCTCGGAGTGGCCGAGA: the TetR repression strength came out at 0.134.
The value for TCCCTTGAAGTGTAGGAGA was 0.0837; that for TCCCGGCTAGTCACTGAGA was 0.256.
The sequence TCCCGGCGAGTCGTAGAGA came in with a TetR repression strength of 0.0801.
The figure for TCCCCTTTAGTGAAGGAGA is 0.0558; for TCCCGGACAGTAAGAGAGA it is 0.322.
Regarding TCCCGCTCAGTAGGGGAGA, the TetR repression strength was 0.2.
For TCCCGGCAAGTGACGGAGA, the TetR repression strength is 0.22.
The value for TCCCTGTCAGTTGGGGAGA was 0.324; that for TCCCGGGGAGTCGCCGAGA was 0.573.
TCCCAATGAGTCAATGAGA returned a TetR repression strength of 0.207.
In the case of TCCCATTAAGTACGCGAGA, the TetR repression strength amounted to 0.0452.
For the sequence TCCCTTGAAGTTTGGGAGA, the TetR repression strength was 0.216.
In turn, TCCCGTCAAGTTGGGGAGA had a TetR repression strength of 0.236.
Sequence TCCCAATTAGTCGAGGAGA registered a TetR repression strength of 0.509.
TCCCATTCAGTGGGGGAGA yielded a TetR repression strength of 0.294.
As to TCCCTCATAGTGATGGAGA, the TetR repression strength is 0.22.
The value for TCCCTTAGAGTTTCTGAGA was 0.295.
In turn, TCCCCGCGAGTCAACGAGA had a TetR repression strength of 0.495.
The figure for TCCCGGTGAGTTCGGGAGA is 0.181; for TCCCGCGTAGTACTTGAGA it is 0.215; for TCCCGGTCAGTGCTGGAGA it is 0.378.
Take TCCCAGCCAGTGTTAGAGA: the TetR repression strength worked out at 0.518.
The figure for TCCCGTAGAGTTTAAGAGA is 0.23; for TCCCATTGAGTAATGGAGA it is 0.191; for TCCCGTAGAGTGGTTGAGA it is 0.284.
TCCCTACAAGTAGCGGAGA had a TetR repression strength of 0.27.
TCCCAGCGAGTGCCGGAGA yielded a TetR repression strength of 0.141.
Sequence TCCCAATTAGTAGCCGAGA came in with a TetR repression strength of 0.518.
Sequence TCCCATTCAGTATCTGAGA had a TetR repression strength of 0.252.
The value for TCCCAATGAGTAGTAGAGA was 0.0915.
The figure for TCCCATGGAGTGTGGGAGA is 0.244; for TCCCTACCAGTAATCGAGA it is 0.278; for TCCCCAATAGTCCCGGAGA it is 0.112.
In the case of TCCCCCAGAGTGAGGGAGA, the TetR repression strength is 0.185.
The figure for TCCCTGTTAGTAATTGAGA is 0.123; for TCCCTGAAAGTGAGAGAGA it is 0.16.
The value for TCCCGCTTAGTGCCCGAGA was 0.22; that for TCCCCCTGAGTACAGGAGA was 0.0444.
The figure for TCCCAACAAGTGAAGGAGA is 0.0518; for TCCCTCCCAGTGTTAGAGA it is 0.313; for TCCCGTATAGTCTGCGAGA it is 0.361.
Sequence TCCCCAAGAGTCGGGGAGA had a TetR repression strength of 0.171.
The sequence TCCCTGGGAGTTGACGAGA showed a TetR repression strength of 0.013.
TCCCGGGGAGTGAGTGAGA gave a TetR repression strength of 0.153.
In turn, TCCCTGGAAGTTTGAGAGA registered a TetR repression strength of 0.082.
The value for TCCCGTCTAGTGAGGGAGA was 0.25.
TCCCTGCAAGTGTCTGAGA displayed a TetR repression strength of 0.251.
The value for TCCCCGGTAGTTTCGGAGA was 0.239; that for TCCCAGCGAGTCCGGGAGA was 0.0826; that for TCCCTGAGAGTGATCGAGA was 0.0416.
The sequence TCCCCGAGAGTGATGGAGA registered a TetR repression strength of 0.391.
The value for TCCCTGGGAGTCGCGGAGA was 0.205; that for TCCCCATGAGTATTCGAGA was 0.353.
The sequence TCCCATGCAGTTATGGAGA showed a TetR repression strength of 0.15.
The value for TCCCCGATAGTCGTGGAGA was 0.177; that for TCCCCAGAAGTGCGAGAGA was 0.522; that for TCCCGTGGAGTCCGCGAGA was 0.174.
In turn, TCCCGTGAAGTAGGAGAGA returned a TetR repression strength of 0.154.
The figure for TCCCTATGAGTGCGCGAGA is 0.253; for TCCCACATAGTCAATGAGA it is 0.473; for TCCCTAGAAGTTTATGAGA it is 0.249.
TCCCGGCTAGTGTCGGAGA: the TetR repression strength was 0.184.
In turn, TCCCACTGAGTTAACGAGA had a TetR repression strength of 0.175.
TCCCACTGAGTACGTGAGA came in with a TetR repression strength of 0.193.
TCCCATGGAGTTGTGGAGA returned a TetR repression strength of 0.203.
Consider TCCCTGAGAGTCACCGAGA, for which the TetR repression strength was 0.346.
The sequence TCCCACGCAGTGAGTGAGA came in with a TetR repression strength of 0.155.
The figure for TCCCTACTAGTTGTAGAGA is 0.303.
The figure for TCCCTGCGAGTTATAGAGA is 0.346; for TCCCCGAGAGTACTAGAGA it is 0.268; for TCCCCGCTAGTGTTTGAGA it is 0.375.
In turn, TCCCTAAGAGTGGGAGAGA registered a TetR repression strength of 0.174.
Sequence TCCCTGCGAGTCTGCGAGA yielded a TetR repression strength of 0.339.
The figure for TCCCCTCTAGTGTCAGAGA is 0.326.
The figure for TCCCATCGAGTGTGGGAGA is 0.468.
In turn, TCCCATTCAGTGATCGAGA displayed a TetR repression strength of 0.731.
The value for TCCCAACGAGTAATGGAGA was 0.395; that for TCCCGGAGAGTACCTGAGA was 0.0134; that for TCCCATGCAGTATTTGAGA was 0.254.
TCCCATGAAGTGGTTGAGA yielded a TetR repression strength of 0.502.
The value for TCCCAGAGAGTCTCTGAGA was 0.311.
In turn, TCCCCCTAAGTGCGTGAGA came in with a TetR repression strength of 0.155.
The figure for TCCCGTTAAGTTAAGGAGA is 0.323; for TCCCTGTCAGTATAGGAGA it is 0.0605.
The value for TCCCTAATAGTAGGGGAGA was 0.248; that for TCCCTTGGAGTGGGGGAGA was 0.211; that for TCCCTAATAGTTCGTGAGA was 0.207.
The value for TCCCGTTTAGTGCTCGAGA was 0.229.
TCCCATGTAGTGTAGGAGA had a TetR repression strength of 0.315.
The figure for TCCCGTAGAGTTAGAGAGA is 0.181.
The sequence TCCCATGGAGTCCGTGAGA returned a TetR repression strength of 0.182.
The value for TCCCGGCTAGTGGATGAGA was 0.227.
The figure for TCCCTCCTAGTCAGGGAGA is 0.104; for TCCCACGGAGTGAAGGAGA it is 0.291; for TCCCATTCAGTGTCGGAGA it is 0.125.
TCCCTTTAAGTTCATGAGA: the TetR repression strength is 0.348.
The figure for TCCCAATCAGTGCGCGAGA is 0.289; for TCCCGTGGAGTGAATGAGA it is 0.475.
In the case of TCCCATGTAGTAGCAGAGA, the TetR repression strength stood at 0.
